Source: publication PMC1459871
Results are given in words; binding and its absence hold for the method and conditions named. In cells and extracts the contact can be indirect. Some results given as binding are weak or reduced against the parent protein; the word gives no strength. Where a sequence is shown, tags or fusion partners need not be part of it. Values belong to the binder of their own block, whether it stands above or below them.

Experiments:
[1] = molecular target: T1, FLAG epitope-tagged PIG-2 (proliferation-inducing gene 2; gremlin 1), full length (human) (UniProt O60565); assay: co-IP; HEK 293 co-transfected with FLAG-PIG-2 and YWHAH-Myc-His; RIPA lysate; IP with anti-Myc or anti-FLAG mAb and protein A-Sepharose, 4 h at 4°C; blot with the other antibody
T1 sequence: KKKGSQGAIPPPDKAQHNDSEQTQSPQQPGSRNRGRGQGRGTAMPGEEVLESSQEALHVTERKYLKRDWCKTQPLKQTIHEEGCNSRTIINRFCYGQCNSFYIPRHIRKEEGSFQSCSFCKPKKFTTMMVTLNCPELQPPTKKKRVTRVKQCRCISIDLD

[2] = molecular target: T2, GST-YWHAH (1-100) (human) (UniProt Q04917); assay: pull-down; GST-YWHAH constructs or GST alone on glutathione-sepharose, incubated 12 h at 4° with HEK 293 total cell extract expressing PIG-2; washed with NETN (300 mM NaCl, 0.5% NP-40); western blot; only the target purified
T2 sequence: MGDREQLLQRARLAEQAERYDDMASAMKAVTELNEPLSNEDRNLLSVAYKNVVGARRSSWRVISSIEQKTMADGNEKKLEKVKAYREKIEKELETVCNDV

GST-YWHAH (1-80) (human) = molecular target: T3, GST-YWHAH (1-80) (human) (UniProt Q04917); assay: as above
T3 sequence: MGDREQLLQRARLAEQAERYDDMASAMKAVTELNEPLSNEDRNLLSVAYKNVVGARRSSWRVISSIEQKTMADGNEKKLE

[3] = molecular target: T4, GST-YWHAH full length (1-247) (human) (UniProt Q04917); assay: as above
T4 sequence: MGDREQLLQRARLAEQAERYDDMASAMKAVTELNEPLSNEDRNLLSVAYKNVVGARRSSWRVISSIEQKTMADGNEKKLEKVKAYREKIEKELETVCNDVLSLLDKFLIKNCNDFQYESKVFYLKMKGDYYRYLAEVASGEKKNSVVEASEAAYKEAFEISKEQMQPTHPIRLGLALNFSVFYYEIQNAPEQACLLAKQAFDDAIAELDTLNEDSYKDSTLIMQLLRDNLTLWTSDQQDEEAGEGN

GST-YWHAH (1-60) (human) = molecular target: T5, GST-YWHAH (1-60) (human) (UniProt Q04917); assay: as above
T5 sequence: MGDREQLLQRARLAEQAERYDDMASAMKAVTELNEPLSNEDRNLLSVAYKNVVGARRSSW

[4] = molecular target: T6, Myc-tagged YWHAH (tyrosine 3-monooxygenase/tryptophan 5-monooxygenase activation protein, eta polypeptide; 14-3-3 eta), full length (human) (UniProt Q04917); assay: co-IP; HEK 293 co-transfected with FLAG-PIG-2 and YWHAH-Myc-His; RIPA lysate; IP with anti-Myc or anti-FLAG mAb and protein A-Sepharose, 4 h at 4°C; blot with the other antibody
T6 sequence: T4 sequence

binding [1]: binds
B1: Myc-tagged YWHAH (tyrosine 3-monooxygenase/tryptophan 5-monooxygenase activation protein, eta polypeptide; 14-3-3 eta), full length (protein, UniProt Q04917 1-246)
chain: T4 sequence

binding [2]: binds | binding (GST-YWHAH (1-80) (human)): binds | binding [3]: binds | binding (GST-YWHAH (1-60) (human)): no binding | binding [4]: binds
B2: FLAG epitope-tagged PIG-2 (proliferation-inducing gene 2; gremlin 1), full length (protein, UniProt O60565-1 25-184)
chain: T1 sequence
